Screen size: about 310,000 compounds; about 14,000 (4.5%) showed an effect of 50% or more. Effects have a minus sign here. Some of the results follow.
Target: human ether-à-go-go-related gene (hERG) potassium channel (human, UniProt Q12809)
Test: primary screen, population patch clamp on CHO cells stably expressing hERG
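Note: peak tail current of the secondary pulse compared with the same well before compound.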

Chain of human ether-à-go-go-related gene (hERG) potassium channel (Q12809 whole entry, looked up): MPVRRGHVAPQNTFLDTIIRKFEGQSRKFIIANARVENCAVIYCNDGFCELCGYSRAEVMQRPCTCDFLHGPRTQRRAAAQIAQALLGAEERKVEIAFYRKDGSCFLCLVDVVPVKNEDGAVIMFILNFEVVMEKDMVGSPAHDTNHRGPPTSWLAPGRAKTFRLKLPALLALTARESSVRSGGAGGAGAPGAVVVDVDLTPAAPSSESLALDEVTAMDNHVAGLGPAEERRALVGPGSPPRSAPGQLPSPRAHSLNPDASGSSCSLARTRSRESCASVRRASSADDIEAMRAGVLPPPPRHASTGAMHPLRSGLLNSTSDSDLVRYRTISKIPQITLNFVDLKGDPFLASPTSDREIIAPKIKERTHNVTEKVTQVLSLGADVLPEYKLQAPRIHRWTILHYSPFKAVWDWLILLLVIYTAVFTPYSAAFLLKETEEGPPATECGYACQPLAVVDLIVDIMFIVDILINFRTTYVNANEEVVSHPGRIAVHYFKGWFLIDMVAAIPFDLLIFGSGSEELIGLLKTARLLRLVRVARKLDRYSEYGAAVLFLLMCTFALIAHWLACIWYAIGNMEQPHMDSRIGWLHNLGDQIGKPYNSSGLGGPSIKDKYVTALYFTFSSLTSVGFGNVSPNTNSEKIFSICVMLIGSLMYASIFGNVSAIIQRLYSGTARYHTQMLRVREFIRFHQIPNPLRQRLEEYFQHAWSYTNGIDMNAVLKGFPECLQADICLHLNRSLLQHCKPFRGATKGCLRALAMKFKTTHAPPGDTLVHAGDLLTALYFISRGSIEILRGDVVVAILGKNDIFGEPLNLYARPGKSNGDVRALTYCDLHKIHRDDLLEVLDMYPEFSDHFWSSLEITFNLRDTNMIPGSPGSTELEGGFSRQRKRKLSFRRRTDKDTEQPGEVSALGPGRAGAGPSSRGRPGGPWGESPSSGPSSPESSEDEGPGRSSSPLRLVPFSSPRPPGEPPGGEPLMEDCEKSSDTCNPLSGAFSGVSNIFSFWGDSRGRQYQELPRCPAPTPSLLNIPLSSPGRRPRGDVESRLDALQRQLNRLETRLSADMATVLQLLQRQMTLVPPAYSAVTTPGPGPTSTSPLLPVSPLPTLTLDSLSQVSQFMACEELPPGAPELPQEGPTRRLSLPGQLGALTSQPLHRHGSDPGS

In order of falling “hERG current change (%, negative = inhibition) at 10uM” value:
1. COc1ccc(Cl)cc1NC(=S)NNC(=O)c1cccnc1  36.9%
2. CNC(=O)NC(=S)NC(=O)c1cccc(Cl)c1  29.8%
3. Cc1[nH]n(-c2ccccc2)c(=O)c1N=Nc1ccc(C(=O)O)cc1  25.7%
4. Cc1nnc(N2CCCC(C(=O)Nc3cc(F)ccc3F)C2)c2nn(-c3ccccc3)c(C)c12 (stereo not shown)  22.9%
5. CC(=O)NS(=O)(=O)c1ccc2c(c1)C(=O)c1cc(S(=O)(=O)NC(C)=O)ccc1-2  21.1%
6. Cc1ccc(S(=O)(=O)N(C)c2ccc(OCC(=O)Nc3ccc(C(=O)N(C)C)cc3)cc2)cc1C  19.4%
7. O=C(COC(=O)C1CC1)Nc1c(Cl)cccc1C(F)(F)F  19.1%
8. O=C(O)CCCN1C(=O)c2ccccc2Sc2ncccc21  19%
9. O=S(=O)(c1ccccc1)N(CC(O)CN1CCOCC1)c1ccccc1 (stereo not shown)  18.6%
10. Cc1c(O)ccc2c3c(c(=O)oc12)CCC(C)C3 (stereo not shown)  17.6%
11. Cc1[nH]c(-c2ccccn2)nc(=S)c1Cl  17.1%
12. C=CCNC(=S)/C(=C(/[O-])c1ccccc1Br)[n+]1ccccc1  16.6%
13. CCn1c(=O)n(CC)c2cc([N+](=O)[O-])ccc21  16%
14. Cc1nn(C)cc1S(=O)(=O)Nc1ccc(F)c(F)c1  14.9%
15. COC(=O)c1scc(C)c1NC(=O)/C=C/C(=O)O  14.7%
16. CC1(CCBr)C(=O)N(c2ccccc2)c2ccccc21 (stereo not shown)  14.6%
17. CC(=O)Nc1ccc(/C=N/Nc2nncc3ccccc23)cc1  14.6%
18. CCCCn1c(N)c(N(CC)C(=O)C(c2ccccc2)c2ccccc2)c(=O)[nH]c1=O  14.1%
19. COCCNC(=O)CCCC(=O)NCCOC  13.9%
20. CCC(=O)NC(=S)NNC(=O)c1ccc([N+](=O)[O-])cc1  13.4%
21. Cc1ccc2[nH]c(=O)c(CN(Cc3ccco3)S(=O)(=O)c3c(C)ccc4nsnc34)cc2c1  12.6%
22. COc1ccc(CNS(=O)(=O)c2cc(CN3C(=O)c4cccnc4C3=O)ccc2OC)cc1  12.4%
23. O=C(O)CSCCc1ccccn1  12.2%
24. O=C(CNC(=O)/C=C/c1ccco1)N=Nc1c(O)[nH]c2ccccc12  12%
25. CCCSCCCNC(=O)Cn1nc(CC)n2c(cc3c(OC)cccc32)c1=O  11.9%
26. Cc1nc(C(F)(F)F)ccc1C(=O)Nc1ccc2ccccc2n1  11.3%
27. COC(=O)Nc1nn(-c2ccc(C)cc2)c(=O)c(C#N)c1C  11.2%
28. O=C(O)CCCC(=O)NCc1ccccn1  11.1%
29. CCOc1ccccc1NC(=O)C1CC2CCCC(C1)C2=O (stereo not shown)  10.9%
30. Cc1noc(C)c1COc1cccc(C(=O)Nc2cccnc2)c1  10.8%
31. Oc1ccccc1/C=N/Nc1ccnc(SCc2ccccc2)n1  10.7%
32. COc1ccc(N=C2SCC(=O)N2CCc2ccc(OC)c(OC)c2)cc1  10.6%
33. O=C1OC(=O)C2C3CCC(O3)C12 (stereo not shown)  9.87%
34. CN(c1ccccc1)S(=O)(=O)c1cccc(C(=O)Nc2nccs2)c1  9.62%
35. CCOC(=O)C1=C(C)N=C2SCCC(=O)N2C1c1cc(Br)ccc1OC (stereo not shown)  9.58%
36. Cc1cccc(/C=N/NC(=O)c2cc(C)nc3ccccc23)n1  9.57%
37. FC(F)(F)c1ccccc1NC(=S)N1CCCC1  9.42%
38. Cc1ccc(-c2nn(C(C)(C)C)c3ncnc(N)c23)cc1  9.28%
39. CCn1c(=O)c(C(=O)NC(C)C)c(O)c2ccccc21  9.18%
40. CCC(=O)Nc1nnc(-c2ccco2)o1  8.23%
41. CC(C(=O)NCc1cccs1)n1cccc1 (stereo not shown)  7.58%
42. Cc1ccc(N=Cc2c(O)n(-c3nccs3)c(=O)c3ccccc23)cc1  7.31%
43. C[C@H]1OC[C@@H](C[N+](C)(C)C)O1.[I-]  6.77%
44. CC(=O)Nc1ccc(NC(=O)CN(C)CCC#N)cc1  5.44%
45. Cc1cc(NC(=O)Cn2cnc3c(nnn3-c3cccc(F)c3)c2=O)no1  5.01%
46. O=C(CN1CCN(c2ccc(F)cc2)CC1)c1ccc(O)cc1O  4.2%
47. O=c1oc2cc(O)c(Cl)cc2c2ccccc12  3.98%
48. CCCCC1CCCC12NC(=O)NC2=O (stereo not shown)  2.73%
49. Cc1ccc(C(C(=O)NC2CCCC2)N(C(=O)CCC(=O)Nc2cc(C)on2)c2ccccc2)cc1 (stereo not shown)  2.26%
50. Cc1cc(C)cc(N(C(=O)CCC(=O)Nc2cc(C)on2)C(C(=O)NC2CCCC2)c2ccco2)c1 (stereo not shown)  0.426%
51. O=C(Cn1nnc(-c2ccccc2NC(=O)c2ccco2)n1)NC1CCCCC1  0.336%
52. CCCCNC(=O)c1c(CSc2ccc(Cl)cc2)noc1C(=O)NCCC  0.328%
53. COc1ccc(S(=O)(=O)N2CCC(C(=O)NCCOc3ccccc3F)CC2)cc1OC  0.0976%
54. O=C(CCC(=O)Nc1ccccc1Cl)NNC(=O)Nc1cccc([N+](=O)[O-])c1  -0.741%
55. CC(C)CC(NC(=O)OC(C)(C)C)c1cn([C@@H](CCC(=O)OC(C)(C)C)C(=O)N2CCN(C(=O)OC(C)(C)C)CC2)nn1 (stereo partly shown)  -0.913%
56. Cc1ccc(S(=O)(=O)N2CCOC23CCN(S(=O)(=O)c2cccs2)CC3)cc1  -2.85%
57. CCN(CC)C(=O)Cn1cc(S(=O)(=O)CC(=O)NCCc2ccccc2)c2ccccc21  -3.13%
58. COc1ccccc1-n1cc(CN2CCN(CC(C)C)C(CCO)C2)cn1 (stereo not shown)  -3.13%
59. N#Cc1c(Nc2ccc(F)cc2)sc(C(=O)c2ccccc2)c1N  -3.96%
60. CCc1cc(C(=O)Cc2cnn(-c3ccccc3)c2)c(O)cc1O  -5.4%
61. Cc1ccc(S(=O)(=O)NCCOc2nc(N(C)C)nc(N(C)C)n2)cc1  -5.54%
62. Cc1ccc(S(=O)(=O)N2CCC(C(=O)N[C@H](C(=O)NCC3CCCO3)C(C)C)CC2)cc1 (stereo partly shown)  -5.89%
63. CCN(CC)C(=O)COC(=O)C1CCN(S(=O)(=O)c2ccc3c(c2)OCCO3)CC1  -6.08%
64. COc1ccc(-c2cc(C(=O)N3CCCCC3)c3ccccc3n2)cc1  -6.49%
65. Cc1ccc(S(=O)(=O)N/N=C/c2c(F)cccc2Cl)cc1  -7%
66. Nc1nnc(SCC(=O)NC23CC4CC(CC(C4)C2)C3)s1  -7.89%
67. Cc1ccsc1CN1CCN(c2ccccn2)CC1  -8.77%
68. COc1ccc2c(c1)CC(C1(O)C(=O)Nc3ccccc31)C2=O (stereo not shown)  -8.95%
69. CC1CCc2onc(C(=O)NCc3ccco3)c2C1 (stereo not shown)  -9.46%
70. CN(Cc1ccccc1)C(=O)CCCn1c(=O)[nH]c2cc(Cl)ccc2c1=O  -9.52%
71. CCNC(=O)CSc1nc2ccccc2c(=O)n1CCCOC(C)C  -11.1%
72. Cc1ccc2[nH]c3c(c2c1)CCCC3NCCO.Cl (stereo not shown)  -12.1%
73. COc1ccc(C(=O)Nc2ccc(Cl)cc2C(=O)NCCN2CCOCC2)cc1  -12.3%
74. CCC(C)NC(=O)c1cnn2c(C)c3c(nc12)CCCC3 (stereo not shown)  -12.4%
75. COc1ccc(C2(C(=O)Nc3ccc(S(N)(=O)=O)cc3)CCCC2)cc1  -15.5%
76. CCc1ccc(OCC(=O)Nc2ccc(CN3CCCCC3)cc2)cc1  -18%
77. CCS(=O)(=O)c1ccc(O)c(NC(=O)COc2ccc(Cl)cc2)c1  -19.5%
78. Cc1cccc(CNc2ncnc3ccc(-c4ccc5c(c4)OCCO5)cc23)c1  -19.8%
79. COc1ccc(-c2n[nH]c(C)c2-c2cnn(-c3ccccc3)c2)c(O)c1  -21.2%
80. CC(C)(C)OC(=O)NCCc1nnc(SCc2ccc(Cl)cc2Cl)o1  -22.8%
81. CN(C)CCCN(Cc1ccccc1)C(=S)NCc1ccccc1  -24.7%
82. CN1CCN(C(=O)c2ccccc2-c2nc(-c3ccccc3)no2)CC1  -25.5%
83. CCCn1c(=O)c(C(=O)c2ccccc2)nc2ccccc21  -27.4%
84. Cc1cc(C)c2nc(C)cc(Nc3ccc(C(=O)N(C)C)cc3)c2c1  -28.1%
85. CCOC(=O)c1c(C)n(C)c2ccc(OCC(O)CNCCc3ccccc3)cc12 (stereo not shown)  -28.2%
86. CC1CCN(S(=O)(=O)c2ccc(NC(=O)CN3CCCCCC3)cc2)CC1  -31.2%
87. CCOC(=O)C1CCN(Cc2coc3ccc(Cl)cc3c2=O)CC1  -33.6%
88. O=C(COC(=O)Cc1ccccc1)Nc1cc(S(=O)(=O)N2CCOCC2)ccc1N1CCCC1  -34.6%
89. CC(C)c1ccc(C2=C(O)c3ccccc3C(=O)C2=O)cc1  -38.2%
90. Cc1cc(C)nc(SCc2cc(=O)c(OC(=O)c3ccc(S(=O)(=O)N(C)C)cc3)co2)n1  -45.6%
91. Cc1cc(-c2ccccc2)nc2cc(C(=O)NCc3ccco3)nn12  -55.9%

Reference: PMC4336329 (PLoS ONE, 2015)
